Measurements as given in PubChem BioAssay AID485294 (National Center for Advancing Translational Sciences (NCATS), 2010).
Screen size: about 370,000 compounds; about 150 (0.041%) were called active. The inconclusive results got no clear call from the source; some entries with a clear call stand among them for comparison. Calls come from the whole dose curve; as a rule, active = well fitted inhibition curve with a large enough effect; inconclusive = small, poorly fitted or top-dose-only effect; inactive = flat fitted curve, though single readings scatter. Potencies of inconclusive entries are left out as doubtful fits.

Target: Beta-lactamase (Escherichia coli (strain K12)) (UniProt P00811)
Assay: qHTS Inhibitors of AmpC Beta-Lactamase (assay with detergent); note: nearly all actives have a fitted effect of over 25% in size
Conditions: AmpC hydrolysis of nitrocefin, absorbance 480 nm, 0.01% Triton; series mostly up to 114 µM
Outline: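 20 mM phosphate pH 7.0 + 0.01% (detergent screen) or 0.0001% Triton X-100; 5.3 nM AmpC reagent; cpd preinc 15 min RT; nitrocefin (800 uM stock) to start; A480 q20 s × 4 min; Activity was normalised to no-enzyme and no-compound control wells.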
Potency is the fitted concentration of half-maximal effect; tags give direction and shape of the fitted curve.

Sequence of UniProt P00811 (P00811 whole entry, looked up): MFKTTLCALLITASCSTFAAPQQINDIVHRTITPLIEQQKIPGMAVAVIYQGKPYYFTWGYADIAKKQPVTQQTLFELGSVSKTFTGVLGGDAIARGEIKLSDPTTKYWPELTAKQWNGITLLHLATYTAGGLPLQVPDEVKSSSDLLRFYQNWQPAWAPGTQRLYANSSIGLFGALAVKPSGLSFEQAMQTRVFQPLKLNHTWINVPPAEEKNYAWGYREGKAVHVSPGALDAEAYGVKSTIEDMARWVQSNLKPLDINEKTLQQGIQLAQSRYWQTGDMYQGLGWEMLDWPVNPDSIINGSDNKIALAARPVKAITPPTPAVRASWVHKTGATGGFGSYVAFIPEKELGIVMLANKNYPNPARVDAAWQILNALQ

Row | SMILES | Potency
1 | COc1cccc(C(=O)NCCNC(=O)c2cnccn2)c1 | inconclusive [inhibitor, full curve]
2 | CCOC(=O)C1CCCN(S(=O)(=O)c2ccc3c(c2)N(C(C)=O)CCO3)C1 (stereo not drawn) | inconclusive [inhibitor, full curve]
3 | COc1ccc(Cl)cc1NC(=O)CNc1ccccc1N1CCOCC1 | inactive
4 | O=C(NCC1CCCO1)C1CC(=O)N(c2ccc(F)c(Cl)c2)C1 (stereo not drawn) | inconclusive [inhibitor, full curve, poor fit]
5 | CC(NC(=O)c1ccccc1)c1nnc(SCC(=O)NC2CCCC2)n1C (stereo not drawn) | inactive
6 | COC(=O)c1[nH]c2cccc(OC)c2c1NC(=O)CN1CC(C)OC(C)C1 (stereo not drawn) | inconclusive [inhibitor, full curve, poor fit]
7 | O=C(CN1c2cccc3cccc(c23)S1(=O)=O)N1CCN(c2ccc(F)cc2)CC1 | inconclusive [inhibitor, full curve, poor fit]
8 | Cc1onc(-c2ccccc2)c1C(=O)c1c[nH]c(C(=O)NCCCN2CCOCC2)c1 | inconclusive [inhibitor, full curve, poor fit]
9 | CCn1c(C(C)C)n[nH]c1=S | inconclusive [inhibitor, partial curve]
10 | Cc1cccc(-n2c(N)c(C(=O)NCCN3CCOCC3)c3nc4ccccc4nc32)c1 | inconclusive [inhibitor, full curve, poor fit]
11 | CC(C)(C)c1ccc(C(=O)N2CCC(C(=O)NCCC3=CCCCC3)CC2)cc1 | inconclusive [inhibitor, partial curve, poor fit]
12 | CC1CC(C)CN(C(=O)CSc2nc(Cc3cccs3)nc3ccccc23)C1 (stereo not drawn) | inconclusive [inhibitor, full curve, poor fit]
13 | O=C(CN(c1ccccc1)S(=O)(=O)c1ccccc1)N/N=C/c1ccc(OC2CSC2)cc1 | inconclusive [inhibitor, single point]
14 | COc1ccccc1NC(=O)CN(Cc1ccco1)C(=O)c1ccc(-n2nc(C)cc2C)cc1 | inconclusive [inhibitor, partial curve, poor fit]
15 | O=C(COC(=O)c1cccc(F)c1)Nc1cccnc1Cl | inconclusive [inhibitor, full curve, poor fit]
16 | CN(CC(=O)Nc1cccnc1)S(=O)(=O)c1cc(Cl)ccc1Cl | inconclusive [inhibitor, single point]
17 | COc1ccc2c(c1)Cc1sc(NC(=O)c3cccc(F)c3)nc1-2 | inactive
18 | Cc1ccc(-n2cc(CNCCN3CCOC3=O)c(-c3cccc(C)c3)n2)cc1 | inactive
19 | Cc1c2c(nc3ccccc13)OCC2 | inconclusive [inhibitor, partial curve, poor fit]
20 | O=C(CN(c1cccc(Cl)c1)S(=O)(=O)c1ccc(Cl)cc1)N1CCc2ccccc2C1 | inactive
21 | Nc1cc[n+](CC(=O)c2ccccc2)cc1 | inconclusive [inhibitor, partial curve]
22 | COc1ccc(CN(C(=O)c2snc(C(N)=O)c2N)C(C(=O)NC2CCCC2)c2ccc(OC)c(OC)c2)cc1 (stereo not drawn) | inactive

Row | SMILES | Potency
23 | CCCc1cc(C(=O)Nc2sc(C)c(CC)c2C#N)no1 | inconclusive [inhibitor, partial curve, poor fit]
24 | Cc1ccc(C(=O)N/C(=C/c2cccs2)C(=O)N2CCCCCC2)cc1 | inactive
25 | O=C(CCN1CCCCO1)N1CCCC(Nc2ccc(F)cc2)C1 (stereo not drawn) | inconclusive [inhibitor, full curve, poor fit]
26 | COc1ccccc1C1CC(c2ccccc2)=NN1C(=S)Nc1ccccc1 (stereo not drawn) | inactive
27 | Cc1ccc(-c2nnc(Nc3ccc(S(N)(=O)=O)cc3)c3ccccc23)cc1S(=O)(=O)N1CCOCC1 | inactive
28 | O=[N+]([O-])c1ccccc1/C=C/CN1CCCC(CO)C1 (stereo not drawn) | inconclusive [inhibitor, full curve]
29 | Cn1nccc1C(=O)NC(=S)Nc1sc2c(c1C#N)CCCCC2 | inconclusive [inhibitor, full curve, poor fit]
30 | CCn1c(SC(C)C(=O)Nc2ccc(N3CCOCC3)cc2)nnc1-c1ccco1 (stereo not drawn) | inconclusive [inhibitor, full curve]
31 | O=C(O)c1cccc(NC(=O)N2C[C@H]3C[C@@H](C2)c2cccc(=O)n2C3)c1 | inconclusive [inhibitor, full curve, poor fit]
32 | N#CC(C#N)=C1C=CC=CN1/C(=C\c1ccco1)C(=O)c1ccc(Br)cc1 | inconclusive [inhibitor, single point]
33 | CC(C)c1c(O)nc(SCCC(=O)O)[nH]c1=O | inconclusive [inhibitor, full curve]
34 | COc1ccccc1C1c2[nH]c3ccccc3c2C[C@H]2C(=O)N(C3CCN(Cc4ccccc4)CC3)CC(=O)N12 (stereo partly drawn) | inactive
35 | CC(=NCCCN1CCOCC1)c1c(O)n(-c2ccccc2C)c(=O)[nH]c1=O | inconclusive [inhibitor, full curve, poor fit]
36 | COc1ccc(/C=N/NC(N)=S)cc1 | inactive
37 | O=C(O)c1cc(N/N=C/c2ccncc2)ccc1Cl | inactive
38 | CC(C)c1ccc2oc(-c3cc(NC(=O)c4cccnc4)ccc3Cl)nc2c1 | inactive
39 | O=C(OCc1cccc(C(F)(F)F)c1)c1ccc[nH]c1=O | inconclusive [inhibitor, single point]
40 | CCOc1ccccc1NC(=O)NCc1noc2ccc(C)cc12 | inactive
41 | COc1ccc(N2CCN(C(=O)COC(=O)Cc3c(F)cccc3Cl)CC2)cc1 | inconclusive [inhibitor, single point]
42 | O=[N+]([O-])c1ccccc1/C=N/N1CCN(Cc2ccccc2)CC1 | inactive
43 | COCCN(C(=O)COC(=O)/C=C/c1ccco1)c1c(N)n(Cc2ccccc2)c(=O)[nH]c1=O | inconclusive [inhibitor, full curve, poor fit]
